Here are results for 42 sequences from publication PMC7819943, “Rice protein-binding microarrays: a tool to detect cis-acting elements near promoter regions in rice”.

Some of the results follow.

This test concerns the target T1, OsWOX13 (Oryza sativa, UniProt Q5QMM3 1-267).
T1 sequence: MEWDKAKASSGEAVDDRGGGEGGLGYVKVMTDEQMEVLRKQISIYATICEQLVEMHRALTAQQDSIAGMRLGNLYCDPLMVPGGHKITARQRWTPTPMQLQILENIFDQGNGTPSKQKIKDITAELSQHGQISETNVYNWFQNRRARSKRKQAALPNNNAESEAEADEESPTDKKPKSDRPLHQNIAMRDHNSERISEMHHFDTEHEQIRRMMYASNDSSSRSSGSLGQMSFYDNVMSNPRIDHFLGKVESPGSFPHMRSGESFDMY
As to the kind of experiment: protein-binding microarray (RPBM); PBS, 2% BSA, 51.3 ng/ul salmon testes DNA, 50 uM zinc acetate, 200 nM TF, 25 C, 1 h; high values mean tight binding. Particulars: protein: recombinant; tags: N-terminal polyhistidine and DsRed monomer fusion (pET32a); label: CyDye5-dUTP incorporated in the synthesized complementary strand; 3' TTTTT single-stranded linker to array surface; dsDNA, one strand shown. Put shortly: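 An Axon 4000B scanner gave the binding signal as per-feature fluorescence intensity in arbitrary units. This followed washing of a custom Agilent array that had been incubated for 1 h at 25 °C with 200 nM protein in PBS, 2% BSA, salmon testes DNA and 50 µM zinc acetate. The proteins were transcription factors fused at the N-terminus to polyhistidine and DsRed, expressed in E. coli BL21-CodonPlus and purified on Ni–NTA.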
For the sequence “TTGCTGTGATTCCTGTGTTATCATTGTGTTTGATTTCCCTCGGAGTCACCTAGTGCAG”, the binding signal is 3960 fluorescence intensity (a.u.). Then “AAATTGACAGGTGAAAGAGCTGTGATAAAGAAGCAAGCCGCGGAGTCACCTAGTGCAG”, with 18100 fluorescence intensity (a.u.). Next, “CTGATTTGCTTGAGTTGTTGATATGCAGGGACAATGTTGTCGGAGTCACCTAGTGCAG”: 14700 fluorescence intensity (a.u.); “AAGCTGATTGAAGAGAACTCCTCACTGTCAGGCAAACTTTCGGAGTCACCTAGTGCAG”: 32000 fluorescence intensity (a.u.); “TTTGCTCATAAATTTATAAAATTTGTATGATGTTCACGAGCGGAGTCACCTAGTGCAG”: 7280 fluorescence intensity (a.u.).

For “AAGTTAACTCGATCTCGTGTAATTTGCAATACAAGATTTGCGGAGTCACCTAGTGCAG”, the binding signal was 3880 fluorescence intensity (a.u.). As for “ATCATTACAACAATGTTAAATTGACCAACATACAACACTACGGAGTCACCTAGTGCAG”, the binding signal is 4720 fluorescence intensity (a.u.). “ATGTAACTATAGTGTAATTACACGGTAACTTTTAGTAGATCGGAGTCACCTAGTGCAG”: the binding signal was 13300 fluorescence intensity (a.u.).

For “AATAGTAATTATTATTTATATCACTATCATAACGAACAACCGGAGTCACCTAGTGCAG”, the binding signal was 14200 fluorescence intensity (a.u.). Next, “CCGTGCTCAACTACCCAATCACTCCAAATTAAGCTCGCATCGGAGTCACCTAGTGCAG”: 3750 fluorescence intensity (a.u.); “GGCATGAAATTACATTGAATGATTTCTATGTATTATGTGACGGAGTCACCTAGTGCAG”: 6970 fluorescence intensity (a.u.).

For the sequence “TTGATGTTAAATTTAATGACACTAATTTAGTGTTGTAAATCGGAGTCACCTAGTGCAG”, the binding signal is 22300 fluorescence intensity (a.u.). Take “CAAAACTGTCATTTTGTATGATTTCTCTCTCATCAATTGGCGGAGTCACCTAGTGCAG”: the binding signal was 17500 fluorescence intensity (a.u.). Next, “TTAACAAATTTGCCACACTTGTGTTTATCAACCAAACACCCGGAGTCACCTAGTGCAG”: 9300 fluorescence intensity (a.u.); “TCTTGTTAATTGGATCACGCCGCACCGCACTTGTCCGTGTCGGAGTCACCTAGTGCAG”: 35300 fluorescence intensity (a.u.). Next, “AAATTAATTAGAGGCTGCAATATATATATTAGCGGATCGACGGAGTCACCTAGTGCAG”: 21600 fluorescence intensity (a.u.); “TTAATTAAATTTGTCTGTGTGAGCTGGGATAGGATGCTGCCGGAGTCACCTAGTGCAG”: 43200 fluorescence intensity (a.u.); “CCATCAACAACTCTGATTAGAATGGAATTAACGTTCTTCTCGGAGTCACCTAGTGCAG”: 9000 fluorescence intensity (a.u.). As for “TGCCCAGCCAATCACCGAACGAAGCCGGCGCCGCTTTCTTCGGAGTCACCTAGTGCAG”, the binding signal was 4040 fluorescence intensity (a.u.).

Turning to “TGAAATTTCTACGTAAATCAAGGGCTCGTTCACTTTGCTACGGAGTCACCTAGTGCAG”, the binding signal was 5380 fluorescence intensity (a.u.).

Consider “TACAAGGTCCATGATTTATGATTTTGTTTCAGACCATGGACGGAGTCACCTAGTGCAG”, for which the binding signal was 4550 fluorescence intensity (a.u.).

Take “CTTTGATGACTTCCCGTCCATCAGAGTCAACAGCTGACCACGGAGTCACCTAGTGCAG”: the binding signal was 5720 fluorescence intensity (a.u.). Then “TTTAAAATTAATGCTGTGTTATGTGTCCTTAAGTCCTTGACGGAGTCACCTAGTGCAG”, with 5440 fluorescence intensity (a.u.). Next, “CGCTGCTTCTGATCATCTCCCGTTCTTGCATTCTTCTTCTCGGAGTCACCTAGTGCAG”: 4180 fluorescence intensity (a.u.). Then “GATGATTTGGAGGTAGGATTTGGCTATACTATTAAACTTGCGGAGTCACCTAGTGCAG”, with 12800 fluorescence intensity (a.u.); and “AAATTAACTATAGATGATTAGGAGCCAGTAGTTGTCTATACGGAGTCACCTAGTGCAG”, with 31600 fluorescence intensity (a.u.); and “TTGTGATTGGCAGATGCCATAGTCAGGGCATTAGCTCTTTCGGAGTCACCTAGTGCAG”, with 46400 fluorescence intensity (a.u.). Consider “GAGATTTTGACTATTAATTTTCATCGTCTTTGGTTTTAAGCGGAGTCACCTAGTGCAG”, for which the binding signal is 4120 fluorescence intensity (a.u.).

Consider “TAGATAGATTTAGTTATACATAATAACTATAACTATTTATCGGAGTCACCTAGTGCAG”, for which the binding signal is 6300 fluorescence intensity (a.u.). Then “TAATGCTAATTGTTCGTACAGTAATACCTGGATGTTTTCCCGGAGTCACCTAGTGCAG”, with 10200 fluorescence intensity (a.u.). Regarding “GCAAACAATCAGGCTCCATTCCTTCACCGCGAAGCTGCTCCGGAGTCACCTAGTGCAG”, the binding signal is 3240 fluorescence intensity (a.u.). On to “TTCGAACCTTGATTATACAGTACAGTAGGTACACTACAACCGGAGTCACCTAGTGCAG”, for which the binding signal is 3540 fluorescence intensity (a.u.). Then “CAGTTATGTGATTGGACTATAAATACGATATATGTTGTGTCGGAGTCACCTAGTGCAG”, with 28700 fluorescence intensity (a.u.); and “TCTAAGTAACAGATGTAACTGGAAAGAAAATGATGAATGGCGGAGTCACCTAGTGCAG”, with 6390 fluorescence intensity (a.u.). Then “CAGTTAATTGAGTTGATGGCCACTCCTCTGCTGCTCGTCGCGGAGTCACCTAGTGCAG”, with 60700 fluorescence intensity (a.u.); and “AAAATTTCATCATCAATTTATTCAACAATGGGAGGGACCCCGGAGTCACCTAGTGCAG”, with 13500 fluorescence intensity (a.u.).

For “AATTTGATTAGGTGAGTACACCCAATTTTCCGGAGGACGACGGAGTCACCTAGTGCAG”, the binding signal is 19800 fluorescence intensity (a.u.).

Regarding “CCTTGACAGTGCACACGCCAAAACCACCGCTAACTCCCACCGGAGTCACCTAGTGCAG”, the binding signal is 5060 fluorescence intensity (a.u.). Then “TTTAAATGGATGATAAGTAGAATTATTTATCTTTGGTCTACGGAGTCACCTAGTGCAG”, with 22800 fluorescence intensity (a.u.); and “CAACTTTAATTTAGGTGACTTTTCCATTTGAAATCATTTACGGAGTCACCTAGTGCAG”, with 5300 fluorescence intensity (a.u.). For “GCAAAATTGATCCATTTTCCTCCTGGATTAGTCAATTAGGCGGAGTCACCTAGTGCAG”, the binding signal is 26600 fluorescence intensity (a.u.). Next, “TTAATAAAACTAATTTGGCGTTATTGACCTTGCTAACTTTCGGAGTCACCTAGTGCAG”: 3240 fluorescence intensity (a.u.).
